Experiments:
[1] = target: the molecule itself; assay: SEC; as a1, but at low quantities of protein loaded on the column (low concentration), where a smaller species appears
[2] = target: the molecule itself; assay: SEC; Superdex 200 HR 10/30; 20 mM Tris/acetate pH 7.6, 150 mM NaCl, 0.1 mM EDTA, 0.1 mM PMSF, 15 mM beta-mercaptoethanol; 10-120 ug protein in 100 uL loaded; apparent mass from calibration, estimated number of subunits

B1: R27A mutant of human HspB1 (natural protein)
chain: not shown
notes: HspB1, human; […]; Arg27 of the RLFDQxFG motif replaced by Ala; Expressed from pET23b; also called R27A HspB1; source: E. coli BL21(DE3)pLysS, purified (ammonium sulfate fractionation, HiTrap Q HP, Superdex-200 SEC)
stoichiometry N [1]: ~4 monomers
stoichiometry N [2]: ~22 monomers
